# The BET-seq Pho4 binding data (Le et al. 2018)
# This is one part of the list. Values were computed here from the reads of four pooled replicates and scatter widely.
# Target: T1, Pho4 (S. cerevisiae) (UniProt P07270)
# T1 sequence: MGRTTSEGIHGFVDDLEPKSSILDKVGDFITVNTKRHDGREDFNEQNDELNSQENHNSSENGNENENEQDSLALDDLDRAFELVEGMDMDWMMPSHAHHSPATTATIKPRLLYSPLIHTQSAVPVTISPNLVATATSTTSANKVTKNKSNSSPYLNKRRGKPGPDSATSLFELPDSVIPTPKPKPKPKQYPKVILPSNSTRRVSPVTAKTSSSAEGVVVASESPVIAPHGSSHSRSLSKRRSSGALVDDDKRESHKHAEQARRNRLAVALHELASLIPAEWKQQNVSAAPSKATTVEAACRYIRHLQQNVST
# Assay: relative binding free energy (BET-seq); higher = weaker binding
# Settings: reference: library average
row,Sequence,relative binding free energy [kcal/mol]
1,TGTCTCACGTGTGGAA,0.16
2,AAGGACACGTGGAGGT,0.08
3,AAATTCACGTGGTGTG,0.11
4,CTGCGCACGTGTGAGG,-0.03
5,TTTAGCACGTGTTCTG,-0.1
6,GGTTTCACGTGCAGTA,0.44
7,GATTTCACGTGTGGTC,0.57
8,TGTGTCACGTGCGGCG,-0.05
9,CGACTCACGTGTTGTG,0.23
10,GTAAGCACGTGTAATT,0.1
11,TTTTTCACGTGGCATG,0.25
12,TTGGGCACGTGATGTG,0.02
13,TAGTGCACGTGTCGTG,-0.01
14,TGTGACACGTGTTACT,-0.14
15,GGTGACACGTGGCGGG,0.06
16,TTGTCCACGTGTAGTG,0.04
17,TAATTCACGTGATGTG,0.23
18,ATGAACACGTGTAGGG,0.04
19,TGGCTCACGTGGTCGG,0.12
20,TTGTTCACGTGTCTCG,0.17
21,ATCAGCACGTGGTTGT,-0.1
22,AGGTTCACGTGGACTG,0.24
23,TTAGGCACGTGTCTTT,-0.03
24,TTGGTCACGTGTCAAG,0.21
25,CAGGACACGTGTAAGT,0.22

row,Sequence,relative binding free energy [kcal/mol]
1,GTGGACACGTGTAGAT,0.34
2,GGTTTCACGTGTACAT,0.24
3,GTTTACACGTGTTCGG,0.22
4,TTGGACACGTGGGCAA,0
5,TTCTGCACGTGGATGG,0.12
6,GTAAGCACGTGGCGCG,-0.02
7,ACGTGCACGTGGGGTT,-0.13
8,TTGGACACGTGTAAGT,0.31
9,AGTGCCACGTGGAGTC,0.01
10,CGTATCACGTGGGGTG,-0.21
11,ATTTGCACGTGGTTGT,0.13
12,GCTAACACGTGTTAGG,0.07
13,TGAGCCACGTGTGGGC,-0.03
14,TAGGGCACGTGTTGTA,-0.15
15,GGGACCACGTGGGTGC,-0.2
16,AGCAGCACGTGATTTG,0.26
17,AAATGCACGTGGTAGG,-0.09
18,AATAGCACGTGGTTGT,-0.11
19,TAGATCACGTGCGTAT,0.11
20,TGGTACACGTGTGCTA,-0.12
21,TTATTCACGTGCAGAT,0.07
22,TTCTACACGTGGTTGA,0.01
23,TCTTGCACGTGTCTGG,-0.09
24,CGTAGCACGTGTGTAT,0
25,TTTTGCACGTGCTTAT,-0.02

row,Sequence,relative binding free energy [kcal/mol]
1,AAGAACACGTGTGAGT,0.13
2,TGTTGCACGTGATAGG,0.09
3,GCAGTCACGTGTGTTT,0.28
4,ATTGACACGTGGTCTG,-0.08
5,GAAGGCACGTGTATTA,0.09
6,AGTTACACGTGGCTAT,0.02
7,TATTTCACGTGAGTTA,0.34
8,GGGCGCACGTGCTTGT,-0.18
9,AGATTCACGTGGCGTA,0.31
10,AAGCGCACGTGGGAGT,-0.19
11,GTAGTCACGTGTAAGG,0.21
12,GTCGGCACGTGGGCGA,-0.14
13,TTATGCACGTGAAGGG,0.3
14,TCGGGCACGTGTACGG,-0.07
15,TCAGGCACGTGGGGTG,-0.26
16,AGTGACACGTGTAGTT,0.06
17,TTCCTCACGTGAGGGG,0.37
18,GTGTACACGTGGTGCG,0
19,GTGCGCACGTGTCTTT,0.02
20,TCGGACACGTGAGGTG,0.33
21,TAGATCACGTGCTAGG,0.29
22,GTGCTCACGTGTAGAT,0.45
23,TATATCACGTGAAGGG,0.46
24,AAGTTCACGTGGTCTG,0.06
25,TTGCTCACGTGTTGGC,0.17

row,Sequence,relative binding free energy [kcal/mol]
1,GTTAGCACGTGTGGGT,0.09
2,CGGCACACGTGTGGAG,0.2
3,TTGTGCACGTGCAGTG,0.09
4,AGCCGCACGTGGGGGT,-0.28
5,GGGTTCACGTGGAGTG,0.38
6,CATAACACGTGTGGGA,0.07
7,TGTCACACGTGGTGCG,-0.07
8,TCAGTCACGTGCTGTG,0.04
9,GATTACACGTGTAGGC,0.26
10,CTGGCCACGTGTGGTT,-0.03
11,GGGGGCACGTGAAAGT,0.14
12,TCGGTCACGTGGGGGC,0.02
13,ATGGGCACGTGGGGAG,-0.37
14,GTTGACACGTGGGAAT,0.01
15,GTATCCACGTGTGTTG,0.01
16,TAAATCACGTGTATTA,0.06
17,GTAGTCACGTGCAATG,0.14
18,GATTTCACGTGTTTAC,0.44
19,TTTCTCACGTGAGATG,0.35
20,TATGACACGTGATGGC,0.02
21,GGAGACACGTGGTTAG,-0.21
22,TAAGGCACGTGATTGA,0.07
23,GGTTTCACGTGAATAG,0.3
24,TGGTCCACGTGGCAGG,-0.15
25,TGAATCACGTGTAGAT,0.26

row,Sequence,relative binding free energy [kcal/mol]
1,GTTTACACGTGGAAAA,0.3
2,TATGTCACGTGCAGGC,0.11
3,AGAAGCACGTGATGAG,0.16
4,TGGAGCACGTGGCGGA,-0.06
5,ATATACACGTGTTGTG,0.01
6,ATCGGCACGTGGATAG,0
7,GATAGCACGTGTGATT,0.11
8,GAGAGCACGTGGTAGG,-0.09
9,TAACGCACGTGTGTTT,-0.07
10,GGTCACACGTGTGTAT,0.24
11,TTGTCCACGTGTTAGC,0.17
12,GGGAACACGTGAGGGT,0.26
13,CATTTCACGTGTTGGG,0.14
14,TGGGGCACGTGCTAGG,-0.2
15,TGAGACACGTGCGGGT,-0.07
16,GTTTACACGTGTGTGC,0.23
17,ATTCACACGTGGTCTT,0.08
18,AGTTTCACGTGACGTG,0.33
19,TGAGACACGTGGTTAA,-0.09
20,TGAGACACGTGGAAGT,0.22
21,TGTCTCACGTGGCGGA,0.06
22,GAGATCACGTGGTCGG,0.19
23,TGGGTCACGTGGCAGT,0.06
24,GGGGGCACGTGGAAGA,0.05
25,TCAGGCACGTGGGCTT,-0.22

row,Sequence,relative binding free energy [kcal/mol]
1,TATTACACGTGTGGAT,0.1
2,ATTGTCACGTGATATT,0.3
3,TCTATCACGTGTGTGG,0.14
4,GTAGACACGTGGGTGT,-0.07
5,AGAAGCACGTGTGTTA,-0.05
6,TGCGGCACGTGATTGA,-0.04
7,TCTTCCACGTGTGTGT,-0.01
8,ATAAGCACGTGTTGTA,-0.13
9,TAGAACACGTGGTATG,-0.19
10,TTGAACACGTGAGCTT,0.29
11,CGGATCACGTGGTGTT,0.13
12,TGGCTCACGTGTTATG,0.19
13,TTAGGCACGTGAAGAT,0.11
14,TATTCCACGTGTGGGA,0.08
15,GGTTTCACGTGCGGGA,0.27
16,TGTGTCACGTGGACTA,0.06
17,GGGATCACGTGTTTAT,0.14
18,AACTGCACGTGTTTTT,0.03
19,GTTCGCACGTGTGTTT,0.03
20,TGGCTCACGTGCAGGT,0.07
21,AGTATCACGTGGGCAG,0.01
